This note sets out measurements from publication PMC4336329 (PLoS ONE, 2015).

Each structure is given as a SMILES string. Screen size: about 310,000 compounds; about 14,000 (4.5%) showed an effect of 50% or more. Effects have a minus sign here. Some of the results follow.
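Further: peak tail current of the secondary pulse compared with the same well before compound.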

human ether-à-go-go-related gene (hERG) potassium channel, sequence (Q12809 whole entry, looked up): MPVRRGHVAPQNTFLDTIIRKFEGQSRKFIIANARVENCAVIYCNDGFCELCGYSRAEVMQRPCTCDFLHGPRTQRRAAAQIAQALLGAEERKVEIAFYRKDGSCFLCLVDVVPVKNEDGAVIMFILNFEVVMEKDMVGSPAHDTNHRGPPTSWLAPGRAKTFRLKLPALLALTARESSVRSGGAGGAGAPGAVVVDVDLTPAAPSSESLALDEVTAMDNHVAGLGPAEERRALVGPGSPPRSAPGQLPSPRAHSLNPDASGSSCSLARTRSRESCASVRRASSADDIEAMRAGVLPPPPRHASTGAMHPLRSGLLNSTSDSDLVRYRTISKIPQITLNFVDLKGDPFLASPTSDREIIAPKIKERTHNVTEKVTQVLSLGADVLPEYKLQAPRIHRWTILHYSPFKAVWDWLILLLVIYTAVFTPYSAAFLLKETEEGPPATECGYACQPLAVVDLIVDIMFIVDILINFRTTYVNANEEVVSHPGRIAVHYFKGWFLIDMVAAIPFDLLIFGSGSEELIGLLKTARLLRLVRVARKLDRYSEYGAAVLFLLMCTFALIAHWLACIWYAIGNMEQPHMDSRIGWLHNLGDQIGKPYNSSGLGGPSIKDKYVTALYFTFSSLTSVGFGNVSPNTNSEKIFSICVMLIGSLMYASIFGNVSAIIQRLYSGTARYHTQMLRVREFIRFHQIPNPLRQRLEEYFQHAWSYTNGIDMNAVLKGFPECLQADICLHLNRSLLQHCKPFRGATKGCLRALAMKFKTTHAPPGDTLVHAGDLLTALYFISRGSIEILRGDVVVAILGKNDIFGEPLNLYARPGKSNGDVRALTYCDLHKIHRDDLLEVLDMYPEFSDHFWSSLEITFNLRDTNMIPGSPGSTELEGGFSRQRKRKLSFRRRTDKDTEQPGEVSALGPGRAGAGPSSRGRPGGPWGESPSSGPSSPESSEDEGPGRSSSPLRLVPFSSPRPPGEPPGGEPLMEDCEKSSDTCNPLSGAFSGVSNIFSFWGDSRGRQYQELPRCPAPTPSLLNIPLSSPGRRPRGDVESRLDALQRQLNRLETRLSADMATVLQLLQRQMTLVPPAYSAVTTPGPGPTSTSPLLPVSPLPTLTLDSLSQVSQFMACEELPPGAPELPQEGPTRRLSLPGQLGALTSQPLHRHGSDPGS

This experiment has as its target human ether-à-go-go-related gene (hERG) potassium channel (human, UniProt Q12809). As to the kind of experiment: primary screen, population patch clamp on CHO cells stably expressing hERG.
`Clc1ncc(CSc2ccccc2)s1`: the “hERG current change (%, negative = inhibition) at 10uM” value was 3.25%.

With `CCN(CC)S(=O)(=O)c1cccc(NC(=O)c2ccc(SC)cc2OC)c1`, the “hERG current change (%, negative = inhibition) at 10uM” value is given as -32.2%.

With `Cc1c(C(=O)Nc2nc(-c3ccccn3)cs2)oc2ccccc12`, the “hERG current change (%, negative = inhibition) at 10uM” value is 6.09%.

In the case of `Cc1cc(C(=O)NNC(=O)c2ccccc2F)c2ccccc2n1`, the “hERG current change (%, negative = inhibition) at 10uM” value is 7.87%.

Regarding `O=C(c1cccs1)N1CCN(C(=O)c2ccco2)c2ccccc2C1`, the “hERG current change (%, negative = inhibition) at 10uM” value was -13.6%.

For `CC1CC(C)CN(CCOc2ccc(Cl)cc2Cl)C1.O=C(O)C(=O)O` (stereo not shown), the “hERG current change (%, negative = inhibition) at 10uM” value is -67.3%.

Take `O=[N+]([O-])c1ccc(N2CCN(C(=S)Nc3ccc(F)cc3)CC2)cc1`: the “hERG current change (%, negative = inhibition) at 10uM” value is -44.4%.

Turning to `Cc1cc2oc(=O)cc(CSc3nnc(C)n3N)c2cc1C(C)C`, the “hERG current change (%, negative = inhibition) at 10uM” value is -2.86%.

Take `N#Cc1c(N2CCOCC2)nc(N2CCCCC2)c2c1CCN(C1CCCCC1)C2`: the “hERG current change (%, negative = inhibition) at 10uM” value was -29.1%.

`CCOc1ccc(CCNC(=O)CCS(=O)(=O)c2ccc(Cl)cc2)cc1OCC`: the “hERG current change (%, negative = inhibition) at 10uM” value is listed as 16.6%.

As to `O=C(O)Cc1sc(-c2cccnc2)nc1-c1ccc(Br)cc1`, the “hERG current change (%, negative = inhibition) at 10uM” value is on record as 70.5%.

Consider `CCN(CC(=O)NCc1ccc(Cl)cc1)C(=O)c1cnc(Cl)c(Cl)c1`, for which the “hERG current change (%, negative = inhibition) at 10uM” value turned out to be 5.29%.

Consider `CC(C(O)c1ccccc1)N(C)CCn1cnc2c1c(=O)n(C)c(=O)n2C` (stereo not shown), for which the “hERG current change (%, negative = inhibition) at 10uM” value is given as 14%.

As for `CCOc1ccc2nc(NC3=NC(C)(C)C=C(C)N3)nc(C)c2c1`, the “hERG current change (%, negative = inhibition) at 10uM” value is listed as -47.8%.

Regarding `c1ccc2c(CNc3ccc(CNc4ncn[nH]4)cc3)cccc2c1`, the “hERG current change (%, negative = inhibition) at 10uM” value came out at 1.99%.

Take `O=C(CNC1CCCCC1)Nc1cccc([N+](=O)[O-])c1`: the “hERG current change (%, negative = inhibition) at 10uM” value is recorded as -9.63%.

For `O=c1c2cc(N3CCOCC3)ccc2[nH]c(=S)n1Cc1ccccc1Cl`, the “hERG current change (%, negative = inhibition) at 10uM” value amounted to 6.94%.

On to `CS(=O)(=O)c1ccc(Cl)c(NC(=O)COC(=O)c2cccc(S(=O)(=O)N3CCCC3)c2)c1`, for which the “hERG current change (%, negative = inhibition) at 10uM” value is listed as -51.5%.

As to `O=C(CCS(=O)(=O)c1ccccc1)Nc1nc(-c2ccc(F)cc2)cs1`, the “hERG current change (%, negative = inhibition) at 10uM” value was -11%.

On to `CSc1nc(C)cc(SCC(=O)Nc2ccc(Cl)cc2Cl)n1`, for which the “hERG current change (%, negative = inhibition) at 10uM” value worked out at 3.18%.

As for `CCOC(=O)C(NC(=O)c1ccccc1OCC)(Nc1ncccn1)C(F)(F)F` (stereo not shown), the “hERG current change (%, negative = inhibition) at 10uM” value is on record as -10.4%.

For the molecule `Cc1ccc(OCCCn2c(CO)nc3ccccc32)cc1`, the “hERG current change (%, negative = inhibition) at 10uM” value is listed as -14.2%.

With `CCOc1ccc2[nH]c(=O)c(CN(CCCO)S(=O)(=O)c3ccc(F)cc3)cc2c1`, the “hERG current change (%, negative = inhibition) at 10uM” value is given as -34.4%.

Turning to `O=C(NCc1ccccc1)c1ccc(Br)cc1Br`, the “hERG current change (%, negative = inhibition) at 10uM” value is recorded as -4.2%.

Consider `Cn1cccc1-c1cc(C(=O)N/N=C/c2ccccc2Cl)[nH]n1`, for which the “hERG current change (%, negative = inhibition) at 10uM” value is on record as 13.1%.

For `CCOc1ccccc1NC(=O)Nc1ccc(Br)cc1C`, the “hERG current change (%, negative = inhibition) at 10uM” value came out at 24.3%.

In the case of `CC(C)(C)c1cc(-c2ccccc2)n[nH]1`, the “hERG current change (%, negative = inhibition) at 10uM” value is -18.3%.

For the molecule `COc1ccc(C(=O)NC(=S)NNC(=O)c2ccccc2C)cc1`, the “hERG current change (%, negative = inhibition) at 10uM” value was 17.7%.

With `CCN(CCNC(=O)Nc1ccc(Cl)cc1)c1ccccc1`, the “hERG current change (%, negative = inhibition) at 10uM” value was 11.3%.

On to `O=C1CSC(c2ccc3c(c2)OCO3)N1c1ccc(Oc2ccccc2)cc1` (stereo not shown), for which the “hERG current change (%, negative = inhibition) at 10uM” value is given as -7.9%.

As for `Oc1ccc(-c2nnc(SCc3ccccc3)o2)cc1`, the “hERG current change (%, negative = inhibition) at 10uM” value is -8.15%.

For `O=C(Nc1ccc([N+](=O)[O-])cc1)C(=O)Nc1cccc(C(=O)O)c1`, the “hERG current change (%, negative = inhibition) at 10uM” value is given as -6.06%.

Regarding `O=C1C2C3C=CC(C3)C2C(=O)N1Cc1cccnc1` (stereo not shown), the “hERG current change (%, negative = inhibition) at 10uM” value came to 3.96%.

As for `Cn1cccc1CNC(=S)Nc1ccccc1Cl`, the “hERG current change (%, negative = inhibition) at 10uM” value stood at 4.04%.

For the molecule `COc1cc(C(=O)N2C(=O)c3cccc(N)c3C2=O)cc(OC)c1OC`, the “hERG current change (%, negative = inhibition) at 10uM” value is 17.4%.

Take `O=C(c1cc(F)c(F)cc1Cl)N1CCN(c2ncccn2)CC1`: the “hERG current change (%, negative = inhibition) at 10uM” value stood at 16.4%.

With `Cc1ccc(CNC(=O)[C@@H]2CCC(=O)N2Cc2ccco2)cc1`, the “hERG current change (%, negative = inhibition) at 10uM” value came out at 18%.

Regarding `COc1ccc(-c2nc(CS(=O)CC(=O)NCc3ccc(Cl)cc3)c(C)o2)cc1` (stereo not shown), the “hERG current change (%, negative = inhibition) at 10uM” value is -13.2%.

Consider `CCOC(=O)/C=C1\NC(C)(C)Cc2cc(OC)c(O)cc21`, for which the “hERG current change (%, negative = inhibition) at 10uM” value was -9.32%.

For `CCOC(=O)N1CCC(NC(=S)Nc2ccc3nc(N4CCN(C)CC4)cc(C)c3c2)CC1`, the “hERG current change (%, negative = inhibition) at 10uM” value was -1.48%.

Take `COc1ccc(/C=C2/SC(=S)N(CCC(=O)N3CCN(C)CC3)C2=O)cc1`: the “hERG current change (%, negative = inhibition) at 10uM” value was 3.99%.

For `COc1ccccc1CNC(=O)C(=O)NCCC1CCCCN1S(=O)(=O)c1cccs1` (stereo not shown), the “hERG current change (%, negative = inhibition) at 10uM” value stood at 3.86%.

With `NS(=O)(=O)c1cccc(NC(=O)CCC(=O)c2cccs2)c1`, the “hERG current change (%, negative = inhibition) at 10uM” value was 17.1%.

In the case of `NC(=S)Nc1ccc(F)cc1F`, the “hERG current change (%, negative = inhibition) at 10uM” value is given as 3.9%.

Take `CCCc1c(C)nc(N2CCN(c3ccccc3OC)CC2)[nH]c1=O`: the “hERG current change (%, negative = inhibition) at 10uM” value was found to be 25.2%.

For the molecule `CCOC(=O)N1CCN(C(=O)Cn2cnc3ccccc3c2=O)CC1`, the “hERG current change (%, negative = inhibition) at 10uM” value is on record as 6.6%.

Turning to `COc1ccc(C(=O)CC(=O)C(=O)Nc2cccc([N+](=O)[O-])c2C)cc1`, the “hERG current change (%, negative = inhibition) at 10uM” value was found to be 16.5%.

As for `Cc1ccc(CCNC(=O)c2nnc(CS(=O)(=O)c3ccccc3)o2)cc1`, the “hERG current change (%, negative = inhibition) at 10uM” value is given as -8.64%.

`Cc1cc(C(=O)COC(=O)c2ccc([N+](=O)[O-])o2)c(C)n1CC1CCCO1` (stereo not shown): the “hERG current change (%, negative = inhibition) at 10uM” value is -42.5%.

On to `COc1cccc(-c2ncc3ccccc3c2COC(=O)N2CCCCC2)c1`, for which the “hERG current change (%, negative = inhibition) at 10uM” value was -11.4%.

Turning to `COc1ccc(-n2ncc3c(NCc4cccs4)ncnc32)cc1`, the “hERG current change (%, negative = inhibition) at 10uM” value is reported as 1.33%.

As to `Cc1nn(C)cc1S(=O)(=O)Nc1ccccc1Br`, the “hERG current change (%, negative = inhibition) at 10uM” value is 13.7%.

Consider `CC1(C)S/C(=N/N=C/c2cccs2)NC1=O`, for which the “hERG current change (%, negative = inhibition) at 10uM” value is reported as 10.1%.

On to `CCCCOC(=O)NS(=O)(=O)c1sc(CC(C)C)cc1-c1ccc(Cn2c(CC)nc3c(C)cc(C)nc32)cc1`, for which the “hERG current change (%, negative = inhibition) at 10uM” value is listed as 5.9%.

For the molecule `O=C(NCc1cccnc1)c1cn(CCc2ccccc2)nn1`, the “hERG current change (%, negative = inhibition) at 10uM” value is listed as -11.4%.

`Cc1cc(=O)oc2cc(OC(C)C(=O)Nc3nccs3)ccc12` (stereo not shown): the “hERG current change (%, negative = inhibition) at 10uM” value is -6.45%.

Consider `CNC(=O)C1CC(=O)N(c2ccc(F)c(Cl)c2)C1` (stereo not shown), for which the “hERG current change (%, negative = inhibition) at 10uM” value is listed as -1.43%.

Turning to `O=c1c2ccccc2nc2n1CCN2Cc1ccc(Cl)cc1`, the “hERG current change (%, negative = inhibition) at 10uM” value is on record as -51.9%.
